Results on 31 molecules are retold here after paper PMC9911399, “Two distinct binding modes provide the RNA-binding protein RbFox with extraordinary sequence specificity”.

The chains are these.
T1: RBFOX1 RRM (Homo sapiens, UniProt Q9NWB1 109-208)
T1 sequence: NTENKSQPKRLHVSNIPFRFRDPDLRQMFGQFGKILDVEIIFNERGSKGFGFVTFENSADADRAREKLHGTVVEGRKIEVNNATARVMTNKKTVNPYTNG

B1: UACAGGU (DNA:RNA)
RNA: GGGAGACCGGAAUUCAGAUUGUCCUACAGGUUUAAAUCCCGUCGUAGCCACCA
DNA 1: CAATCTGAATTCCGGTCTCCC
DNA 2: TGGTGGCTACGACGGGATT
B2: AGCCGAA (DNA:RNA)
RNA: B1 RNA with U25A, A26G, A28C, G30A, U31A
DNA 1: CAATCTGAATTCCGGTCTCCC
DNA 2: TGGTGGCTACGACGGGATT
B3: CGUUGUC (DNA:RNA)
RNA: B1 RNA with U25C, A26G, C27U, A28U, G30U, U31C
DNA 1: CAATCTGAATTCCGGTCTCCC
DNA 2: TGGTGGCTACGACGGGATT
B4: AGGUCGA (DNA:RNA)
RNA: B1 RNA with U25A, A26G, C27G, A28U, G29C, U31A
DNA 1: CAATCTGAATTCCGGTCTCCC
DNA 2: TGGTGGCTACGACGGGATT
B5: GACAUCU (DNA:RNA)
RNA: B1 RNA with U25G, G29U, G30C
DNA 1: CAATCTGAATTCCGGTCTCCC
DNA 2: TGGTGGCTACGACGGGATT
B6: GGCGGCU (DNA:RNA)
RNA: B1 RNA with U25G, A26G, A28G, G30C
DNA 1: CAATCTGAATTCCGGTCTCCC
DNA 2: TGGTGGCTACGACGGGATT
B7: GAGGACC (DNA:RNA)
RNA: B1 RNA with U25G, C27G, A28G, G29A, G30C, U31C
DNA 1: CAATCTGAATTCCGGTCTCCC
DNA 2: TGGTGGCTACGACGGGATT
B8: ACGAGUG (DNA:RNA)
RNA: B1 RNA with U25A, A26C, C27G, G30U, U31G
DNA 1: CAATCTGAATTCCGGTCTCCC
DNA 2: TGGTGGCTACGACGGGATT
B9: GCUUGAG (DNA:RNA)
RNA: B1 RNA with U25G, A26C, C27U, A28U, G30A, U31G
DNA 1: CAATCTGAATTCCGGTCTCCC
DNA 2: TGGTGGCTACGACGGGATT
B10: ACCGUAA (DNA:RNA)
RNA: B1 RNA with U25A, A26C, A28G, G29U, G30A, U31A
DNA 1: CAATCTGAATTCCGGTCTCCC
DNA 2: TGGTGGCTACGACGGGATT
B11: UAGGGAU (DNA:RNA)
RNA: B1 RNA with C27G, A28G, G30A
DNA 1: CAATCTGAATTCCGGTCTCCC
DNA 2: TGGTGGCTACGACGGGATT
B12: AAACCCC (DNA:RNA)
RNA: B1 RNA with U25A, C27A, A28C, G29C, G30C, U31C
DNA 1: CAATCTGAATTCCGGTCTCCC
DNA 2: TGGTGGCTACGACGGGATT
B13: ACAAAUU (DNA:RNA)
RNA: B1 RNA with U25A, A26C, C27A, G29A, G30U
DNA 1: CAATCTGAATTCCGGTCTCCC
DNA 2: TGGTGGCTACGACGGGATT
B14: GACUCAG (DNA:RNA)
RNA: B1 RNA with U25G, A28U, G29C, G30A, U31G
DNA 1: CAATCTGAATTCCGGTCTCCC
DNA 2: TGGTGGCTACGACGGGATT
B15: CACGAGA (DNA:RNA)
RNA: B1 RNA with U25C, A28G, G29A, U31A
DNA 1: CAATCTGAATTCCGGTCTCCC
DNA 2: TGGTGGCTACGACGGGATT
B16: GCGGGAC (DNA:RNA)
RNA: B1 RNA with U25G, A26C, C27G, A28G, G30A, U31C
DNA 1: CAATCTGAATTCCGGTCTCCC
DNA 2: TGGTGGCTACGACGGGATT
B17: CAAGUCU (DNA:RNA)
RNA: B1 RNA with U25C, C27A, A28G, G29U, G30C
DNA 1: CAATCTGAATTCCGGTCTCCC
DNA 2: TGGTGGCTACGACGGGATT
B18: CAGCCUA (DNA:RNA)
RNA: B1 RNA with U25C, C27G, A28C, G29C, G30U, U31A
DNA 1: CAATCTGAATTCCGGTCTCCC
DNA 2: TGGTGGCTACGACGGGATT
B19: UGCACGU (DNA:RNA)
RNA: B1 RNA with A26G, G29C
DNA 1: CAATCTGAATTCCGGTCTCCC
DNA 2: TGGTGGCTACGACGGGATT
B20: GAGCGAC (DNA:RNA)
RNA: B1 RNA with U25G, C27G, A28C, G30A, U31C
DNA 1: CAATCTGAATTCCGGTCTCCC
DNA 2: TGGTGGCTACGACGGGATT
B21: CGACGCG (DNA:RNA)
RNA: B1 RNA with U25C, A26G, C27A, A28C, G30C, U31G
DNA 1: CAATCTGAATTCCGGTCTCCC
DNA 2: TGGTGGCTACGACGGGATT
B22: AUCCUGG (DNA:RNA)
RNA: B1 RNA with U25A, A26U, A28C, G29U, U31G
DNA 1: CAATCTGAATTCCGGTCTCCC
DNA 2: TGGTGGCTACGACGGGATT
B23: CGUGCGA (DNA:RNA)
RNA: B1 RNA with U25C, A26G, C27U, A28G, G29C, U31A
DNA 1: CAATCTGAATTCCGGTCTCCC
DNA 2: TGGTGGCTACGACGGGATT
B24: UCAAGUG (DNA:RNA)
RNA: B1 RNA with A26C, C27A, G30U, U31G
DNA 1: CAATCTGAATTCCGGTCTCCC
DNA 2: TGGTGGCTACGACGGGATT
B25: CUUGCCG (DNA:RNA)
RNA: GGGAGACCGGAAUUCAGAUUGUCCCUUGCCGUUAAAUCCCGUCGUAGCCACCA
DNA 1: CAATCTGAATTCCGGTCTCCC
DNA 2: TGGTGGCTACGACGGGATT
B26: UUUGAAG (DNA:RNA)
RNA: B25 RNA with C25U, C29A, C30A
DNA 1: CAATCTGAATTCCGGTCTCCC
DNA 2: TGGTGGCTACGACGGGATT
B27: CAGUAUG (DNA:RNA)
RNA: B25 RNA with U26A, U27G, G28U, C29A, C30U
DNA 1: CAATCTGAATTCCGGTCTCCC
DNA 2: TGGTGGCTACGACGGGATT
B28: UUGACCA (DNA:RNA)
RNA: B25 RNA with C25U, U27G, G28A, G31A
DNA 1: CAATCTGAATTCCGGTCTCCC
DNA 2: TGGTGGCTACGACGGGATT
B29: GACAUUA (DNA:RNA)
RNA: B1 RNA with U25G, G29U, G30U, U31A
DNA 1: CAATCTGAATTCCGGTCTCCC
DNA 2: TGGTGGCTACGACGGGATT
B30: AUCUCGU (DNA:RNA)
RNA: B1 RNA with U25A, A26U, A28U, G29C
DNA 1: CAATCTGAATTCCGGTCTCCC
DNA 2: TGGTGGCTACGACGGGATT
B31: UCAUCCG (DNA:RNA)
RNA: B25 RNA with C25U, U26C, U27A, G28U
DNA 1: CAATCTGAATTCCGGTCTCCC
DNA 2: TGGTGGCTACGACGGGATT

Changes are numbered by the printed parent chain; changes in the protein carry UniProt numbers. The list shows a part of the results.

This experiment concerns the target T1, RBFOX1 RRM. The experiment is described as follows: EMSA; HiTS-Eq, 1 nM pool, 10 min; buffer printed only for the single-RNA assays: 10 mM Tris pH 7.5, 150 mM NaCl, 3.4 mM EDTA, 0.001% NP-40, 30 C. Conditions: tags: His6 N-terminal (pET28a); label: 5' 32P. The gist of the method:
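These values rest on relative association constants, computed from read-count changes of each RNA species versus the control reaction and normalised to the cognate motif. Reads came from free RNA recovered by 8% native PAGE after purified RbFox RRM (wild type or mutant) at increasing concentrations was equilibrated for 10 min in 50 µL with 1 nM of a 5′-radiolabelled pool with 7 randomized nucleotides and DNA-annealed flanks.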
In general terms: A gel shift assay detects complexes by their altered migration in electrophoresis.
Consider B1, for which the binding signal was 0.00878 KA relative to UGCAUGU. For B2 the value was 0.00653 KA relative to UGCAUGU; for B3, 0.015 KA relative to UGCAUGU. For B4 the value was 0.0134 KA relative to UGCAUGU; for B5, 0.00384 KA relative to UGCAUGU. The figure for B6 is 0.0115 KA relative to UGCAUGU; for B7 it is 0.00659 KA relative to UGCAUGU. Take B8: the binding signal is 0.0145 KA relative to UGCAUGU. For B9 the value was 0.0353 KA relative to UGCAUGU; for B10, 0.000487 KA relative to UGCAUGU; for B11, 0.00709 KA relative to UGCAUGU. For B12 the value was 0.00111 KA relative to UGCAUGU; for B13, 0.000493 KA relative to UGCAUGU; for B14, 0.0163 KA relative to UGCAUGU.

As for B15, the binding signal was 0.0065 KA relative to UGCAUGU. The figure for B16 is 0.021 KA relative to UGCAUGU; for B17 it is 0.00314 KA relative to UGCAUGU. For B18 the value was 0.00229 KA relative to UGCAUGU; for B19, 0.514 KA relative to UGCAUGU. The figure for B20 is 0.00578 KA relative to UGCAUGU; for B21 it is 0.0108 KA relative to UGCAUGU; for B22 it is 0.00785 KA relative to UGCAUGU. As for B23, the binding signal was 0.0172 KA relative to UGCAUGU. The figure for B24 is 0.0132 KA relative to UGCAUGU; for B25 it is 0.0116 KA relative to UGCAUGU. The figure for B26 is 0.0216 KA relative to UGCAUGU; for B27 it is 0.0141 KA relative to UGCAUGU; for B28 it is 0.00878 KA relative to UGCAUGU. For B29, the binding signal was 0.00307 KA relative to UGCAUGU.

Regarding B30, the binding signal was 0.00816 KA relative to UGCAUGU. For B31 the value was 0.00501 KA relative to UGCAUGU.
